From publication PMC6919601, “Identification of Plasmodium dipeptidyl aminopeptidase allosteric inhibitors by high throughput screening” (PLoS ONE, 2019) come the findings set out here.

Among all 110,000 compounds or so, about 230 (0.21%) showed an effect of 50% or more. The list shows a part of the results.
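Further: 30 min substrate incubation versus DMSO and 10 µM JCP410 controls.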

DPAP1, sequence (Q8IIJ9 whole entry, looked up): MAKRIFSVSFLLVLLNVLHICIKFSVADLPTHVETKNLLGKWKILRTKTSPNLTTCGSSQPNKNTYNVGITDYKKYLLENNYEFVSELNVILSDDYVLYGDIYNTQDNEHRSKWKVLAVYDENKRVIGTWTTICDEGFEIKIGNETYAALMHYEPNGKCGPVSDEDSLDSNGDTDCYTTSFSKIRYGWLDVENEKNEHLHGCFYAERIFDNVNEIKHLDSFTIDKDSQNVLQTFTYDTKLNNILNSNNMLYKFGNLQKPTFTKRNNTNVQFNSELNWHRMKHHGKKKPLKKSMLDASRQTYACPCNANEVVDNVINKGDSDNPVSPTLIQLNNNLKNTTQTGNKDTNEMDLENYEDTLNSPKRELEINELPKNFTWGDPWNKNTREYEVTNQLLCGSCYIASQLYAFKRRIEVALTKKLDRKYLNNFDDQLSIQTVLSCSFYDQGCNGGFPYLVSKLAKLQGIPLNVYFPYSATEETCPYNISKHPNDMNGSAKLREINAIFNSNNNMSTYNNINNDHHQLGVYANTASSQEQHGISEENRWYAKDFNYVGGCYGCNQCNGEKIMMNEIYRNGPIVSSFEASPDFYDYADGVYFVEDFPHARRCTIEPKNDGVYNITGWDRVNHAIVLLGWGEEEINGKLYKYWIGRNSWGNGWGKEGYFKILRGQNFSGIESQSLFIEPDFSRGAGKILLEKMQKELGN

The assay has as its target DPAP1 (Plasmodium falciparum, UniProt Q8IIJ9). Briefly: primary screen, percent inhibition; read by cleavage of a fluorogenic dipeptide substrate; higher = more effect of the substance. Details: species or system P. falciparum D10 trophozoite lysates; single well.
In the case of `O=C(NCCC1=CCCCC1)NCc1noc2ccccc12`, the “% Inhibition @ 10 uM” value turned out to be 3.28%.
As for `Cn1cnnc1SCc1cn2cc(Cl)ccc2n1`, the figure is 1.6%.
The result for `O=C(CN1Cc2ccccc2C1=O)N1CCOCC1` reads -0.501%; that for `CC/N=c1\c(NS(=O)(=O)c2ccc(OC)cc2)c(O)oc2ccccc12`, -0.0709%.
As for `O=c1c(-c2ccccc2)c(C(F)(F)F)oc2c(CN3CCCCC3)c(O)ccc12`, the figure is 4.86%; as for `CC(C)NC(=O)NS(=O)(=O)c1cnccc1N1CCCCC1`, 2.49%; as for `Cc1nn(C)c2c1c(-c1ccccc1)cc(=O)n2Cc1cccc(F)c1`, 2.65%.
With `CC(C)c1ccc(S(=O)(=O)c2cnc(SCC(N)=O)nc2O)cc1`, the “% Inhibition @ 10 uM” value turned out to be 0.351%.
The result for `Cc1sc2ncn(CC(=O)NCCCC(=O)N(C)Cc3ccccc3)c(=O)c2c1C` reads 5.12%; that for `Cn1c(C(=O)N2CCC(C(N)=O)CC2)cc2sccc21`, -3.08%; that for `COCCOC(=O)c1c(C)oc2ccc(OCc3ccc(C)cc3)cc12`, -0.357%.
As for `CC(C)(Oc1ccc(Cl)cc1)C(=O)N1CCN(c2ccccc2)CC1`, the figure is -6.02%.
With `CCOc1ccc(CCNC(=O)c2cc3c(s2)CS(=O)(=O)C3)cc1OCC`, the “% Inhibition @ 10 uM” value is reported as -6.77%.
The result for `CN(Cc1ccccc1)Cc1nc2c(c(=O)n(C)c(=O)n2C)n1CCCc1ccccc1` reads -3.46%.
The result for `O=S1(=O)c2ccccc2NC(c2cccc(OC3CSC3)c2)N1Cc1ccccc1` (stereo not shown) reads 0.993%.
In the case of `CCOC(=O)c1c(NC(=O)/C=C/C(=O)O)sc2c1CCN(Cc1ccccc1)C2`, the “% Inhibition @ 10 uM” value is recorded as -1.92%.
As for `COc1ccc(CN2CCCCC2C)c(C)c1C` (stereo not shown), the figure is 3.24%; as for `CC(C)NS(=O)(=O)c1ccc(-c2ccc(S(=O)(=O)NC(C)C)cc2)cc1`, 1.7%; as for `CC(C)N(Cc1nc(-c2ccccc2)no1)C(=O)N1CCOCC1`, 0.486%.
Consider `CC1(C)OC(=O)C(/C=N/c2ncccn2)=C(O)O1`, for which the “% Inhibition @ 10 uM” value was determined as 3.66%.
As for `COc1ccc(C2CC(=O)N=C(NC(=O)c3ccc(OC(F)F)cc3)N2)cc1` (stereo not shown), the figure is 4.5%; as for `CCOc1ccc(NS(=O)(=O)c2ccc(NC(=O)c3ccccc3C(=O)O)cc2)cc1`, 3.5%; as for `COc1cc(/C=C2\SC(=O)N(Cc3ccccc3)C2=O)ccc1OCC(=O)O`, 0.189%.
As for `Cc1nn(-c2ccccc2)c2sc(C(=O)NCC(=O)O)cc12`, the figure is -7.04%; as for `CS(=O)(=O)N1CCCC(C(=O)NCCCN2CCN(Cc3ccccc3)CC2)C1` (stereo not shown), 3.79%; as for `O=C1NC(=O)N(c2cccc(Cl)c2)C(=O)/C1=C\Nc1cccc(O)c1`, -2.54%.
As for `CC(C)(C)NC(CNS(=O)(=O)c1ccccc1)c1ccccc1` (stereo not shown), the figure is 1.12%; as for `COc1cccc(-c2cc(C(=O)N3CCCC(C)C3)[nH]n2)c1` (stereo not shown), 1.06%.
Consider `CC1CCN(S(=O)(=O)c2ccc3c(ccn3CCC(=O)NCCc3ccccc3Cl)c2)CC1`, for which the “% Inhibition @ 10 uM” value was 5.61%.
`NC(=O)C1CCCN(Cc2c(F)cccc2F)C1` (stereo not shown): the “% Inhibition @ 10 uM” value was 6.49%.
On to `CC1CCN(S(=O)(=O)c2ccc(NC(=O)c3ccc(Br)o3)cc2)CC1`, for which the “% Inhibition @ 10 uM” value was -1.06%.
For `O=C1/C(=C\c2ccc(Cl)cc2)S(=O)(=O)c2ccccc21`, the “% Inhibition @ 10 uM” value is on record as -1.84%.
On to `Cc1ccc(-c2noc(-c3nnn(-c4cccc(F)c4)c3N)n2)cc1`, for which the “% Inhibition @ 10 uM” value is recorded as -4.17%.
On to `O=C1CC(C(=O)N2CCOCC2)C2(CCCCC2)O1` (stereo not shown), for which the “% Inhibition @ 10 uM” value is given as -0.925%.
As for `O=C(O)c1ccc(NC(=O)c2cccnc2C(=O)O)cc1`, the figure is -6.44%; as for `CCN1CCN(c2c(S(=O)(=O)c3ccc(C)cc3)cnc3cc(OC)c(OC)cc23)CC1`, -3.86%; as for `COc1ccc(N(CC(=O)N2CCOCC2)S(=O)(=O)c2ccccc2)cc1OC`, -3.28%.
The result for `COCc1nnc(SCC(=O)Nc2cc(=O)n(C)c(=O)n2C)n1-c1ccccc1` reads 2.79%.
Regarding `CCOc1ccc(CNC(=O)C2CCN(S(=O)(=O)N3CCC(C)CC3)CC2)cc1`, the “% Inhibition @ 10 uM” value is listed as 5.23%.
The result for `COc1ccc(CNC(=O)C(NS(=O)(=O)c2cccs2)C(C)C)cc1` (stereo not shown) reads 0.723%; that for `O=C(CSc1nnc(-c2cccc(Cl)c2)o1)N1CCCC1`, -4.03%.
As for `COc1ccc(CNC(=O)c2oc3ccc(S(=O)(=O)N4CCOCC4)cc3c2C)cc1`, the figure is -0.972%.
The result for `Cc1nc2cc(NC(=O)N3CCCCC3)ccc2n1C` reads 4.49%.
On to `CC(C)(C)c1ccc(S(=O)(=O)Nc2ccc(O)c(Br)c2)cc1`, for which the “% Inhibition @ 10 uM” value worked out at 5.97%.
As for `O=C(Cn1ncc2ccc(Cl)cc21)N1CCc2ccccc2C1`, the figure is 3.84%; as for `COc1cc2nc(S)nc(NCCC3=CCCCC3)c2cc1OC`, -4.69%.
Regarding `Cc1cc(NC(=O)C(C)Oc2ccc(Cl)cc2Cl)no1` (stereo not shown), the “% Inhibition @ 10 uM” value is recorded as -2.83%.
As for `CC(=O)N(C)c1ccc(NC(=O)COc2ccc(C)cc2Br)cc1`, the “% Inhibition @ 10 uM” value is -5.13%.
The result for `O=C(C1=C(O)C(=O)N(CC2CCCO2)C1c1ccc(Cl)cc1)c1ccc(Br)cc1` (stereo not shown) reads 5.05%.
With `Cc1ccc(S(=O)(=O)Nc2ccc(C)c(O)c2)cc1`, the “% Inhibition @ 10 uM” value is given as -6.39%.
As for `CC(C)CS(=O)(=O)C1=NN2C(=N)/C(=C\c3c[nH]c4ccccc34)C(=O)N=C2S1`, the figure is 1.9%; as for `Cn1c(C(=O)NCc2ccc(Cl)cc2)cc2oc3ccccc3c21`, -5.63%; as for `O=C(O)C1CCCN(c2cnccn2)C1` (stereo not shown), 0.401%.
The result for `COc1cc2ccccc2cc1C(=O)Nc1ccc(Cl)c(Cl)c1` reads -4.21%.
As for `Cc1ccc(C(=N)NOC(=O)c2ccco2)cc1`, the figure is 0.27%; as for `NC(=O)c1c(NC(=O)c2cccnc2)sc2c1CCCCCC2`, 12.6%.
For `CCCNC(=O)Cn1nc(CC)n2c(cc3cc(F)ccc32)c1=O`, the “% Inhibition @ 10 uM” value was -7.22%.
Regarding `CCOC(=O)C1=C(C)N(c2nonc2NC(C)=O)C(N)=C(C#N)C1c1ccccc1F` (stereo not shown), the “% Inhibition @ 10 uM” value is 4.32%.
As for `COc1ccc(OC)c(-c2cc(C(=O)O)c3ccccc3n2)c1`, the “% Inhibition @ 10 uM” value is listed as -0.992%.
The result for `COc1cc(C2CC(=O)NC(SCC(=O)NCc3ccccc3)=C2C#N)ccc1O` (stereo not shown) reads 3.66%; that for `CC(C)Oc1ccc(C(=O)Nc2ccc(Cl)cc2)cc1`, 0.795%.
The result for `Cc1cc(-c2ccc(S(=O)(=O)NCc3cccnc3)cc2)on1` reads -1.32%; that for `CCOc1cc(C(=O)N2CCC3(CC2)N=C(c2ccccc2)C(=O)N3)cc(OCC)c1OCC`, 2.75%.
As for `CCOc1ccc(-c2[nH]nc3c2C(c2ccc(F)cc2)C(C#N)=C(N)O3)c(OCC)c1` (stereo not shown), the figure is -1.06%; as for `Cn1nc(-c2ccc(OCC(=O)N3CCOCC3)cc2)c2ccccc2c1=O`, 2%; as for `Fc1ccc(CN2CCN(Cc3ccccc3)CC2)cc1Br`, 3.1%.
Consider `Cc1ccc(-n2nc(C)c3c(C(=O)NCc4ccc(CN5CCCCCC5)o4)cc(C)nc32)cc1`, for which the “% Inhibition @ 10 uM” value is listed as -1.3%.
The result for `CC(C)CC(NC(=O)c1cnc(-c2cccnc2)s1)C(=O)NCC#N` (stereo not shown) reads -2.35%; that for `CCSc1nc2ccccc2c(=O)n1Cc1ccccc1`, -2.83%; that for `O=C(CSc1nc2c(sc3ccccc32)c(=O)n1CCc1ccccc1)NCC1CCCO1` (stereo not shown), 2.24%.
Regarding `Cc1ccc(-n2cc(/C=C(\C#N)c3nc4ccccc4[nH]3)cn2)cc1C`, the “% Inhibition @ 10 uM” value is reported as -9.11%.
As for `Cc1cccc(-n2nc(C)c(C(=O)NC(C)C)c2-n2cccc2)c1`, the figure is 3.08%; as for `C=CCOC(=O)c1cc(-c2ccc(C=C3C(=O)NC(=O)NC3=O)o2)ccc1Cl`, 0.997%.
As for `CC(NC(=O)c1ccccc1C(=O)NC(C)c1ccccc1)c1ccccc1` (stereo not shown), the “% Inhibition @ 10 uM” value turned out to be 1.08%.
On to `Cc1ccc(-n2nc(C)c3c(C)c(CCC(=O)NCc4ccco4)c(C)nc32)cc1C`, for which the “% Inhibition @ 10 uM” value is listed as -0.72%.
The result for `COc1ccc(-c2cc3c(=O)n(CC(=O)NC4CCCCCC4)ncn3n2)cc1` reads 2.07%; that for `O=C1N=C(N2CCCC2)S/C1=C/c1cccc(Br)c1`, -0.48%; that for `CN(C)CC#CCC(O)(c1ccccc1)c1ccccc1`, 2.2%.
Take `Cc1cc(NCc2ccc3c(c2)OCO3)ccc1Br`: the “% Inhibition @ 10 uM” value is reported as -1.96%.
The result for `CC(C)OCCCNC(=O)c1ccc(CS(=O)(=O)Cc2ccccc2Cl)o1` reads 1.62%; that for `Cc1cc(Cl)ccc1OC(C)C(=O)Nc1sc(C)c(C)c1C(N)=O` (stereo not shown), 6.79%.
The result for `O=C(CSc1nc2ccsc2c(=O)n1Cc1ccccn1)Nc1nccs1` reads -0.456%.
As for `O=C(Nc1ccc(Br)cc1)c1cc(S(=O)(=O)NCc2cccs2)ccc1Cl`, the figure is -3.49%; as for `COc1ccc(-n2nnnc2SCC(=O)c2ccc(O)c(O)c2)cc1`, -5.51%.
In the case of `O=C(NCc1cccnc1)c1cnn(-c2ccccc2)c1-n1cccc1`, the “% Inhibition @ 10 uM” value worked out at 0.137%.
As to `Cc1n[nH]c(C)c1CCCOc1cccc(Cl)c1`, the “% Inhibition @ 10 uM” value was -6.12%.
The result for `Cc1ccccc1Cn1c(CNC(=O)c2ccccc2)nc2ccccc21` reads 1.23%; that for `FC(F)(F)c1cc(-c2ccccc2)nc(NC2CCCC2)n1`, -3.79%; that for `Cc1nc2c(-c3ccccc3)c(C)nn2c(C)c1CC(=O)NCCCN1CCCC1=O`, -6.09%.
As for `O=C(C1CC(c2ccc(F)cc2)=NO1)N1CCOCC1` (stereo not shown), the figure is -3.94%.
The result for `c1ccc(CCN2CCOCC2)cc1` reads -0.446%; that for `CC(=O)N1N=C(c2ccc(Br)cc2)CC1c1ccccc1F` (stereo not shown), 0.206%; that for `[O-][n+]1onc2cc(Cl)c3nsnc3c21`, 7.04%.
For `Cc1nn(C)cc1CNC(=O)c1cc(-c2ccccc2)nc2ccccc12`, the “% Inhibition @ 10 uM” value is recorded as -7.78%.
The result for `COc1ccccc1-c1c(C)nn2c(N3CCOCC3)cc(C)nc12` reads 3.93%; that for `Cn1c2ccc([N+](=O)[O-])cc2c2nc3ccccc3nc21`, -2.42%.
As for `COC(=O)c1cc(S(=O)(=O)N(C)Cc2ccco2)c[nH]1`, the figure is 2.27%; as for `COc1cccc(C2=CC(c3cccc(OC)c3OC)n3ncnc3N2)c1` (stereo not shown), 3.32%.
As for `Cc1cc(C)nc(SCC(=O)Nc2nc(-c3ccccc3)c(C)s2)n1`, the figure is 11.7%; as for `CC(=O)Nc1nc(Sc2nc3c(c(=O)n(C)c(=O)n3C)n2Cc2ccccc2Cl)n[nH]1`, -2.14%.
